# The campaign covered roughly 310,000 compounds. About 14,000 (4.5%) showed an effect of 50% or more. Effects have a minus sign here. This is one part of the list.
# Biological target: human ether-à-go-go-related gene (hERG) potassium channel (human, UniProt Q12809)
# Experiment: primary screen, population patch clamp on CHO cells stably expressing hERG
# 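Also: peak tail current of the secondary pulse compared with the same well before compound.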
# Chain of human ether-à-go-go-related gene (hERG) potassium channel (Q12809 whole entry, looked up): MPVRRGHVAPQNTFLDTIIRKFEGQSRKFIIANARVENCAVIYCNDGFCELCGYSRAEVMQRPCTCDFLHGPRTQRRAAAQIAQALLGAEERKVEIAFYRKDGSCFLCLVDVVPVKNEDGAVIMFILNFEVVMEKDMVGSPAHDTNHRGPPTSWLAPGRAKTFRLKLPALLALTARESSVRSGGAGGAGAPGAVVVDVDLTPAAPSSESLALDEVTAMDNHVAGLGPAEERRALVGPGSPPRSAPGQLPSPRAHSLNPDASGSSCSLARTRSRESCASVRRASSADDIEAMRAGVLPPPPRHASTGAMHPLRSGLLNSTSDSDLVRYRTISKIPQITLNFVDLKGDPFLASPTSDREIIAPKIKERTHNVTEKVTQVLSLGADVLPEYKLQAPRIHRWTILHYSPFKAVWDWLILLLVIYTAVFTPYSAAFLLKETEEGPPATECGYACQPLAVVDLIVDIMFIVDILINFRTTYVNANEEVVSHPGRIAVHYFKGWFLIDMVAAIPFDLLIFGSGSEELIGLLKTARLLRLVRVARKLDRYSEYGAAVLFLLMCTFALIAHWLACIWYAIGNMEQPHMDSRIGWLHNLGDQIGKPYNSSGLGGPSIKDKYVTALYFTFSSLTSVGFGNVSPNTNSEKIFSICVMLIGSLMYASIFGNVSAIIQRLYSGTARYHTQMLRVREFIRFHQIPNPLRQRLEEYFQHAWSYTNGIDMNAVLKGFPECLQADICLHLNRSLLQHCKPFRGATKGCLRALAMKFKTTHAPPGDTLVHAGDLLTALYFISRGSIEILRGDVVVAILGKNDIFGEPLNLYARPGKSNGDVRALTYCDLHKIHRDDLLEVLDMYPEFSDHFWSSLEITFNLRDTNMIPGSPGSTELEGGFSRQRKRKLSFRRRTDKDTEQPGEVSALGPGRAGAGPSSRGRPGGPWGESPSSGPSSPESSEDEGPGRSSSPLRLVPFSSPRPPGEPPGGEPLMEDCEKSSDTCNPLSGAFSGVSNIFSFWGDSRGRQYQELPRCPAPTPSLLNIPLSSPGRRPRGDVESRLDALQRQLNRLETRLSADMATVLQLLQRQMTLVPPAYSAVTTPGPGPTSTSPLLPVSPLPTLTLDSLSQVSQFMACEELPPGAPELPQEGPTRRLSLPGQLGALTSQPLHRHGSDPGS
row,SMILES,"hERG current change (%, negative = inhibition) at 10uM"
1,CCOC(=O)C1CCN(Cc2ccccn2)CC1.O=C(O)C(=O)O,18.9%
2,Cc1ccc(N(CC(=O)NCc2ccccc2)C(=O)CCC(=O)Nc2nccs2)cc1,7.61%
3,O=C(NCc1ccco1)c1ccc(-c2ccc(Cl)cc2)o1,-2.08%
4,CCCN1CCC(=O)N(CCO)CC1,-3.79%
5,O=C(NCc1ccco1)C12CC3CC(CC(C3)C1)C2,6.18%
6,O=C(C1CCCN(Cc2ccccc2)C1)N1CCCCC1.O=C(O)C(=O)O (stereo not drawn),11.3%
7,C/C(=N\OCC(=O)NC12CC3CC(CC(C3)C1)C2)c1cc2ccccc2o1,5.38%
8,CC(c1ccco1)N(C(=O)c1ccccc1NS(=O)(=O)c1ccc(Cl)c([N+](=O)[O-])c1)c1ccccn1 (stereo not drawn),-6.14%
9,CC1=NN(c2cccc([N+](=O)[O-])c2)C(=O)C1,24.4%
10,O=C(CC(c1ccccc1)c1ccccc1)NCC(O)c1ccc([N+](=O)[O-])cc1 (stereo not drawn),-58.1%
11,COc1ccc(CCC(=O)Nc2nc3c(s2)CN(C)CC3)cc1OC,18%
12,CCOC(=O)c1sc(NC(=O)CS(=O)(=O)c2ccc(C)cc2)nc1C,3.25%
13,CC1CCCCC12NC(=O)N(CC(=O)Nc1ccc(N3CCOCC3)cc1)C2=O (stereo not drawn),1.78%
14,Cc1cc(C)n(CC2CC(=O)N(c3ccc(F)c(Cl)c3)C2=O)n1 (stereo not drawn),-3.94%
15,CCn1c(COc2ccccc2C)nnc1SCC(=O)OC,-9.68%
16,CCOc1ccc(C2=CC(=O)C[C@H](c3ccc(OC)cc3)C2)cc1,-6.32%
17,O=C(CCCC(=O)c1ccc(O)cc1)c1ccc(O)cc1,-0.901%
18,Cc1ccc(S(=O)(=O)N(C)C)cc1NC(=O)COC(=O)Cc1n[nH]c(=O)c2ccccc12,16.2%
19,CCOC(=O)N1CCN(C(=O)/C(=C/c2ccc(Cl)cc2)NC(=O)c2ccccc2)CC1,-74.7%
20,COc1cccc(NC2=NCCCCC2)c1,1.26%
21,COc1ccc(CCNC(=O)C2CCN(S(=O)(=O)c3ccc(SC)cc3)CC2)cc1,7.89%
22,CCOc1ccccc1NC(=O)Nn1cnnc1,11%
23,COc1ccc(-n2ccnc2CN2CCN(C3CCCC3)C(CCO)C2)cc1 (stereo not drawn),-29.1%

row,SMILES,"hERG current change (%, negative = inhibition) at 10uM"
1,COc1cccc(C2C=C(c3ccc(OC)cc3OC)Nc3nnnn32)c1 (stereo not drawn),1.76%
2,Cc1ccc(NC(=O)CSc2nc(C)c(C)c(C)n2)c([N+](=O)[O-])c1,-3.98%
3,O=C(NCCN1CCOCC1)c1cc(S(=O)(=O)NCCCN2CCCC2=O)ccc1Cl,4.24%
4,Cc1[nH]c2ccccc2c1Cc1nnc(SCC(=O)NCc2ccco2)o1,4.19%
5,O=C(Nc1cccc(F)c1)c1ccc(S(=O)(=O)N2CCOCC2)cc1,-13.6%
6,Cc1onc(-c2ccccc2)c1C(=O)n1cc(Br)cn1,-12.1%
7,Cc1csc(NC(=O)CSc2ncn(-c3ccccc3)n2)n1,-20.3%
8,Cl.O=C(NC1CCCCC1)N1CCNCC1,19.1%
9,O=C(NCc1ccccc1)C1(C(F)(F)F)CC(CCCO)CCCO1 (stereo not drawn),-5.87%
10,CC(=O)Nc1ccc(-c2csc(NNC(=O)c3ccc(C)cc3)n2)cc1,20.6%
11,COc1ccc(OC)c(NC(=O)CSc2nnc(Cn3nnc4ccccc43)n2C)c1,-7.34%
12,COc1cc(C(=S)N2CCC(C)CC2)ccc1O,5.1%
13,CC(=O)c1c(C)[nH]c(C(=O)CSc2nc3ccccc3n2C)c1C,17.8%
14,O=C(O)CC12CC3CC(C1)CC(n1cncn1)(C3)C2,26.1%
15,Cc1ccc(C(C)C)c(OCCCN2CCc3ccccc3C2)c1.Cl,-70.1%
16,COC(=O)C1=C(c2ccc(Cl)c(C(F)(F)F)c2)C[C@@H]2CC[C@H]1N2C(=O)NCCOc1ccccc1Cl,16%
17,CNC(C)(C)Cc1ccccc1.O=S(=O)(O)O,13.3%
18,CCCNc1nc2ccccc2n2c(C)nnc12,-5.31%
19,COc1ccc(C(=O)Nc2nnc(C3=COCCO3)o2)cc1OC,20%
20,COC(=O)c1ccc(COc2cccc3c2CCN(Cc2ccccc2)C3=O)o1,-46.6%
21,O=S(=O)(Nc1ccc(O)c2ccccc12)c1cccs1,-13.6%
22,COc1ccc(C(=O)NCCc2c[nH]c3ccccc23)cc1OC,-0.252%

# — PMC4336329 (PLoS ONE, 2015)
